Assay results as given in PubChem BioAssay AID1345082 (National Center for Advancing Translational Sciences (NCATS), 2018).
The whole screen tested about 94,000 compounds, of which about 4,000 (4.3%) were called active. Inconclusive means that the source gave no clear call. Such entries were picked first, then a sample of the others. Calls come from the whole dose curve; as a rule, active = well fitted inhibition curve with a large enough effect; inconclusive = small, poorly fitted or top-dose-only effect; inactive = no such curve, though single readings can be large or run the other way. Potencies beside an inconclusive call are fits to weak or partial responses and may not hold up.

experiment: Cytotoxic Profiling in NIH 3T3 Cell Line of Diverse Libraries Using Quantitative High-Throughput Screening; conditions: NIH 3T3 viability, CellTiter-Glo ATP luminescence, 48-72 h; activity change, negative = cytotoxicity: at 96.7 µM (top of the series) unless noted; series mostly up to 96.7 µM; note: nearly all actives have a fitted effect of over 55% in size
In short: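 Luminescent ATP readout (CellTiter-Glo, 10 min RT) after 48 or 72 hr compound exposure of NIH 3T3 cells seeded at 400 cells/well in 1536-well format; quantitative HTS.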
% is set by controls: 0 for no effect and ±100 for the full control effect; potency is the fitted concentration of half-maximal effect; tags give direction and shape of the fitted curve.

Row | SMILES | outcome | Potency | activity change, negative = cytotoxicity
1 | Cc1ccc(Cl)c(C(=O)N2CCC3(CC2)[C@H](O)C[C@@H]3OCCO)c1 | inactive | – | –
2 | COc1ccc(-c2cc(N3CCC(NC(=O)c4ccc(C#N)cc4)C3)n[nH]2)cc1 (centres undefined) | – | inconclusive: 50.1 µM [inhibitor, partial curve, poor fit] | –
3 | Cc1ccc2nc(COCC(=O)N[C@H]3CC[C@@H]4CCC[C@@H]43)[nH]c2c1 | – | inconclusive: 39.8 µM [inhibitor, partial curve, poor fit] | –
4 | Clc1ccc(Nc2cnc3ccc(-c4ccccc4)nn23)nc1 | – | inconclusive: 89.1 µM [inhibitor, partial curve, poor fit] | –
5 | CN(C)CCNC(=O)c1cccc2c1CCN2C(=O)Nc1ccccc1 | – | – | inactive: -4.32%
6 | CCc1ccc(N2CC(c3noc(-c4ccccc4F)n3)CC2=O)cc1 (centres undefined) | – | inconclusive: 50.1 µM [inhibitor, partial curve, poor fit] | –
7 | C=CCC1(CO)CCCN(CC(=O)NCCc2ccc(Cl)cc2)C1 (centres undefined) | – | – | inactive: -24.7%
8 | CC(C)(C)C(=O)Nc1cc(-c2ccccn2)nn1-c1ccccc1 | – | – | inactive: -5.8% [at 138 µM]
9 | Cc1cccc(-n2nc(-c3c(C)nc4scc(CC(=O)NCc5ccco5)n4c3=O)cc2C)c1C | – | inconclusive: 70.8 µM [inhibitor, partial curve, poor fit] | –
10 | COCC(=O)NC1CCC12CCN(C(=O)C1CCOCC1)CC2 (centres undefined) | – | – | inactive: -12.7%
11 | Cc1ccc(C2NC(=O)N(CC(=O)Nc3ccc(F)c(F)c3)C3=C2C(=O)OC3)cc1 (centres undefined) | – | inconclusive: 31.6 µM [inhibitor, partial curve] | –
12 | Clc1ccc(-c2cnc([C@@H]3COCCN3C3CCCCC3)[nH]2)s1 | – | active: 79.4 µM | –
13 | CN1c2cc(C(=O)NC3CCCCC3)ccc2C(=O)N2CCCCC21 (centres undefined) | – | – | inactive: -15.1%
14 | O=C(NCc1cccnc1)C1CCN(C(=O)c2ccc(-c3cccs3)cc2)CC1 | – | inconclusive: 7.94 µM [inhibitor, full curve, poor fit] | –
15 | O=C(O)c1cccc(-c2n[nH]c3c2CC(=O)N(c2ccccc2)C3)c1 | – | inconclusive: 20 µM [inhibitor, partial curve, poor fit] | –
16 | COc1ccc(-c2cc(N3CCCN(C(=O)c4ccc5[nH]ccc5c4)CC3)n[nH]2)cc1 | – | inconclusive: 50.1 µM [inhibitor, partial curve, poor fit] | –
17 | CC(NC(=O)C1CCN(C(=O)c2ncn3c2COC(c2ccc(F)cc2)C3)CC1)c1ccccc1 (centres undefined) | – | – | inactive: -28.4%
18 | CC(C)(C)CC(=O)NC[C@H]1O[C@H](Cc2cc(-c3ccc(F)cc3)on2)CC[C@@H]1O | – | inconclusive: 126 µM [inhibitor, single point] | –
19 | Cc1noc2c(-c3cccnc3N3CCOCC3)cc(-c3ccccc3)nc12 | – | inconclusive: 100 µM [inhibitor, single point] | –
20 | COc1ccc(F)cc1S(=O)(=O)N1CCCC(Cn2c(C)nc3cccnc32)C1 (centres undefined) | – | inconclusive: 35.5 µM [inhibitor, partial curve] | –

Row | SMILES | outcome | Potency | activity change, negative = cytotoxicity
21 | N#Cc1ccc(CN2CCCN(S(=O)(=O)c3ccccc3)CCC(=O)NCC2)cc1 | – | inconclusive: 35.5 µM [inhibitor, partial curve, poor fit] | –
22 | COc1ccc(-c2ccc3c(n2)c(=O)ncn3Cc2ccccc2)cc1OC | – | inconclusive: 100 µM [inhibitor, partial curve, poor fit] | –
23 | CCOc1ccccc1NC(=O)Cn1cccc1-c1nc(-c2ccc(F)cc2)no1 | – | inconclusive: 35.5 µM [inhibitor, partial curve] | –
24 | CNC(=O)C1=C(OCc2ccccc2)c2ccccc2[S+](=O)([O-])N1c1c(C)cccc1C | – | inconclusive: 70.8 µM [inhibitor, single point] | –
25 | CC(C)(N)C(=O)N1CCCC(N2CCN(c3cccc(C(F)(F)F)c3)CC2)C1 (centres undefined) | – | inconclusive: 56.2 µM [inhibitor, partial curve, poor fit] | –
26 | COc1cc2nc(C)n(CC(=O)NC3CCCc4c3[nH]c3ccccc43)c(=O)c2cc1OC (centres undefined) | – | inconclusive: 4.47 µM [inhibitor, full curve, poor fit] | –
27 | O=C(NCc1ccccc1)C1(c2ccc(Cl)cc2)CCOCC1 | – | inconclusive: 89.1 µM [inhibitor, partial curve, poor fit] | –
28 | O=C(C1CC1)N1CCC2(CC1)CC(Cc1nc(-c3ccncc3)no1)CCO2 (centres undefined) | – | inconclusive: 44.7 µM [inhibitor, partial curve, poor fit] | –
29 | CCOC(=O)C1=C(C)N=C2SC=C(CC(=O)N3CCC(C)CC3)N2C1c1ccc(C)cc1C (centres undefined) | – | inconclusive: 50.1 µM [inhibitor, partial curve, poor fit] | –
30 | CNC(=O)c1cc(C2CC2)nc2c1c(C1CCCN([S+](=O)([O-])c3cccs3)C1)nn2C (centres undefined) | – | inconclusive: 39.8 µM [inhibitor, partial curve, poor fit] | –
31 | CNCc1ccccn1 | – | inconclusive: 126 µM [inhibitor, single point] | –
32 | CNc1ncccc1C(=O)N1CC[C@@H](c2ccc3c(c2)OCO3)[C@H](O)C1 | inactive | – | –
33 | CCOc1ccccc1C1NC(=O)N(CC(=O)N(C)c2ccccc2)C2=C1C(=O)OC2 (centres undefined) | inactive | – | –
34 | Oc1ccc(-c2nc(C3CC3)nc3c2CCN(Cc2ccc(F)cc2)CC3)cc1 | – | inconclusive: 44.7 µM [inhibitor, partial curve, poor fit] | –
35 | O=C(Nc1ccccc1)c1nnn2c1CN(Cc1ccccc1)C(=O)CC2 | – | active: 100 µM | –
36 | O=C(NCc1nnc2cc(-c3nc(C4CC4)no3)ccn12)c1c(F)cccc1F | – | inconclusive: 44.7 µM [inhibitor, partial curve, poor fit] | –
37 | O=C(Cc1c[nH]c2ncc(-c3ccccc3F)cc12)NCc1cccnc1 | – | inconclusive: 39.8 µM [inhibitor, full curve] | –
38 | COc1cccc(-c2cn3cc(C(=O)NCC(C)C)nc3s2)c1 | – | inconclusive: 50.1 µM [inhibitor, partial curve] | –
39 | O=S(=O)(c1cccs1)N1CCCC2(C1)Nc1cccnc1NC2=NC1CCCC1 (centres undefined) | – | inconclusive: 70.8 µM [inhibitor, partial curve, poor fit] | –
